Data: PubChem BioAssay AID1963576 (National Center for Advancing Translational Sciences (NCATS), 2024)
Out of some 46,000 compounds screened, about 60 (0.1%) were called active. Another 3% or so got no clear call; they are omitted. Calls come from the whole dose curve; as a rule, active = well fitted inhibition curve with a large enough effect; inconclusive = small, poorly fitted or top-dose-only effect; inactive = no such curve, though single readings can be large or run the other way. Some of the results follow.

Assay: Primary qHTS assay for Inhibitors of ovarian cancer metastasis using an organotypic tumor microenvironment (TME) model.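 For activity change, negative = inhibition: plate controls were DMSO wells for no effect and tomatine positive control wells for full effect.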 Note: nearly all actives have a fitted effect of over 65% in size.
Conditions: SKOV3ip1-GFP adhesion/invasion on 3D omental model, fluorescence; series mostly up to 45.8 µM; activity change, negative = inhibition: at the top concentration
Procedure, shortened: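 A 3D layer of primary human omental fibroblasts, mesothelial cells, fibronectin and collagen I, grown 48 hr, received SKOV3ip1-GFP cells in serum-free medium plus compounds at 0.36-46 umol/L. After 2 hr RT and 16 hr 37 C, fixed adherent GFP cells were counted; normalized to DMSO and tomatine.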

Activity change, negative = inhibition, inactive:
C=Cc1ccc(COc2ccc3oc(-c4ccccc4)c(C(=O)OCC)c3c2)cc1 7.54%
COc1ccc(CNC(=O)c2cc(=O)c3cc(C)ccc3o2)cc1 -6.13%
CCOC(=O)c1ccc(NC(=O)C2(S(=O)(=O)c3ccc(Cl)cc3)CC2)cc1 3.23%
O=C(Nc1noc2ccccc12)c1ccc(F)cc1 4.86%
NC(=O)CSc1ncc2c(n1)-c1ccccc1N(Cc1ccc(Cl)cc1)S2(=O)=O -8.79%
O=C(CN1C(=O)C2(SCC(=O)N2c2ccccc2)c2ccccc21)NCc1ccccc1 (stereo unspecified) 1.02%
O=C(Nc1cccc(Cl)c1Cl)c1cc(S(=O)(=O)NCCc2ccccc2)ccc1F 2.58%
O=C(O)C1(Cc2cccc(Nc3nccs3)n2)CCC(Oc2cccc(Cl)c2F)CC1 (stereo unspecified) 15.8%
Cc1c(Cl)cccc1NC(=O)Cn1nnc2sc3c(c2c1=O)CCCC3 3.28%
COc1ccccc1C(=O)Nc1cccc(C(=O)OCc2cc(=O)n3nc(C)sc3n2)c1 4.55%
O=C(NCc1ccc2c(c1)CCN2C(=O)c1ccc(F)cc1)c1ccco1 -3.74%
CC(C)c1noc(-c2ccccc2OCC(=O)Nc2ccccc2[N+](=O)[O-])n1 2.38%
Cc1cc(Nc2ccc(Cl)cc2C)nc(-n2nc(C)cc2C)n1 -9.09%
Cc1nn(CC(=O)Nc2cc(F)ccc2F)c(=O)c2cccn12 -8.42%
CCN(C(=O)c1cc2c(=O)n3cccc(C)c3nc2s1)c1ccc(C)c(C)c1 -9.34%
CCOC(=O)[C@H]1O[C@H]1C(=O)N[C@@H](CC(C)C)C(=O)NCCC(C)C 0.892%
CCC(=O)Nc1ccc2nc3c(=O)n(C)c(=O)n(C)c3nc2c1 6.75%
CCOc1ccc(C(=O)Nc2ccc(-n3nncc3-c3ccccc3)cc2)cc1OCC 6.53%
Cc1c(CNC2CCCCC2)c(C(=O)O)c(C)n1Cc1ccc(F)cc1 10.8%
CC(C)c1nc2n(n1)C1(CCCCC1)[C@@H]1CCCC[C@@H]1N2 4.46%
Cc1oc2ccc(O)c(CN3CCN(C)CC3)c2c1C(=O)Nc1cccc(C(F)(F)F)c1 -17.8%
O=C(CSc1nc2c([nH]c3ccccc32)c(=O)n1-c1cccc(Cl)c1)N1CCOCC1 -12.8%
COc1cccc(CNC(=O)C2(c3cccs3)CCOCC2)c1 -0.94%
O=C(Cn1c(=O)c2ccccc2n(CC(=O)Nc2ccc(F)cc2)c1=O)NCCc1ccccc1 -0.153%
Cc1oc(-c2cccc(Cl)c2)nc1CN1CCCC(C(=O)N2CCN(c3ccc(F)cc3)CC2)C1 (stereo unspecified) 6.2%
COc1c(Cl)cc(C(=O)N(Cc2ccc(C)o2)C2CCS(=O)(=O)C2)cc1Cl (stereo unspecified) 7.84%
Cc1cccc(Cn2c(C)c(CNC3CCCCCC3)c(C(=O)O)c2C)c1 6.47%
COc1ccc(-c2nc3c4ccccc4n(CC(=O)N4CCN(c5ccc(F)cc5)CC4)c(=O)n3n2)cc1 -13%
N#CC1(c2ccc(NC(=O)c3cccnc3NCc3ccncc3)cc2)CCCC1 -15.5%
Cc1cc(C)n(-c2nc3ccccc3nc2N2CCN(c3cccc(C)c3C)CC2)n1 7.55%
CCOc1ccc(NC(=O)NCc2ccc3c(c2)CCN3C(C)=O)cc1 -2.66%
CCOC(=O)c1cc2c(=O)n3ccccc3nc2n(CC2CCCO2)c1=NC(=O)c1ccc(OC)cc1OC (stereo unspecified) -2.46%
CCCN(CCC)CCCNC(=O)Cn1cc2c(n1)-c1c(oc(C(=O)N3CCCC3)c1C)CC2 -3.01%
COc1cccc(C(=O)c2cn(CC(=O)NCCc3ccccc3)c3nc(C)ccc3c2=O)c1 4.46%
CCOC(=O)N1CCc2c(sc3c2C(=O)NC(c2cc(OC)c(O)c(OC)c2)N3)C1 (stereo unspecified) 9.53%
CCCNC(=O)C(CC)n1nc(CC)n2c(cc3oc(C)cc32)c1=O (stereo unspecified) 1.47%
CCCN1CCN(CCCNC(=O)Cn2c(-c3cccs3)cc3ccccc32)CC1 4.54%
Cc1nn(C(=O)c2cccc(F)c2)c(C)c1S(=O)(=O)N1CCCCCC1 1.84%
Cn1nc(-c2ccccc2F)c2cc(C(=O)N3CCN(c4ccc(F)cc4)CC3)sc21 -16.9%
CCOC(=O)c1[nH]c(C)c(CCC(=O)NCc2ccccc2C)c1C -6.9%
Cn1c(=O)n(C/C=C/c2ccccc2)c(=O)c2c1nc1n2CCN1c1ccc(Cl)cc1 5.48%
COc1ccc(Cn2c(SCc3ccc(C(=O)NCCc4ccccc4)cc3)nc3cccnc32)cc1 1.47%
CCN(CC)c1nn2c(=O)c(C(=O)NCc3cccc(C)c3)cnc2s1 27.7%
NCCc1ccc(O)c(O)c1 -10.3%
Cc1cc(C)cc(NS(=O)(=O)c2ccc3[nH]cc(C(=O)N4CCCCCC4)c(=O)c3c2)c1 2.63%
COc1ccc(OC)c(Nc2ncnc3c2cnn3-c2ccc(C)cc2)c1 -8.11%
Cc1cccc(N2CCN(S(=O)(=O)c3ccc(F)c(C(=O)Nc4ccc(C(C)C)cc4)c3)CC2)c1C 2.25%
Cc1ccc(C)c(NC(=O)CSc2nc(=O)n(Cc3ccccn3)c3c2CCC3)c1 35.5%
CC(=O)N1CCc2cc(Br)cc(S(=O)(=O)N3CCN(c4cc(C)ccc4C)CC3)c21 -6.05%
CC(=O)N1c2ccccc2C(=O)C1N1CCN(c2cccc(C(F)(F)F)c2)CC1 (stereo unspecified) 3.91%

outcome, inactive:
Cc1cccc(C)c1NS(=O)(=O)c1ccc(NS(=O)(=O)c2ccc3c(c2)OCCO3)cc1
CC(C)(C)c1ccccc1NC(=O)CSc1nc(-c2cccs2)cc(C(F)(F)F)n1
CCC(NC(=O)Nc1cc(OC)ccc1OC)c1c(-n2cccc2)sc2c1CCN(CC)C2 (stereo unspecified)
CCOC(=O)c1c(NC(=O)CSc2cn(CCNC(=O)c3ccccc3OC)c3ccccc23)sc2c1CCC2
CCCCCC(=O)Nc1ccc(NC(=O)c2cc3ccccc3o2)c(OC)c1
CCOc1ccc(-n2c(CC)nc3c(cnn3-c3ccc(Cl)cc3)c2=O)cc1
COc1cccc(NC(=O)Cn2c(=O)n(CCc3ccccc3)c(=O)c3c4c(sc32)CN(C(C)=O)CC4)c1
Cc1ccc(C(=O)c2oc3ccccc3c2NC(=O)COc2ccccc2Cl)cc1
CCC(C)NC(=O)Cn1c(=O)n(Cc2ccc(C(=O)NCc3ccccc3OC)cc2)c(=O)c2ccccc21 (stereo unspecified)
CCn1cc(S(=O)(=O)c2ccc(C)cc2)c(=O)c2cc(F)c(N3CCCCCC3)cc21
COc1ccc(-c2noc(CN3CCN(c4cccc(Cl)c4)CC3)n2)cc1
